Source: the supplement of paper PMC12217912
The other results are listed elsewhere or left out. The full chains were built here from the parent and the listed change. Values near 0.05 are background.

B1: TEV protease; numbered along this chain (parent)
chain: MGESLFKGPRDYNPISSSICHLTNESDGHTTSLYGIGFGPFIITNKHLFRRNNGTLVVQSLHGVFKVKDTTTLQQHLVDGRDMIIIRMPKDFPPFPQKLKFREPQREERICLVTTNFQTKSMSSMVSDTSCTFPSGDGIFWKHWIQTKDGQCGSPLVSTRDGFIVGIHSASNFTNTNNYFTSVPKNFMELLTNQEAQQWVSGWRLNADSVLWGGHKVFMVKPEEPFQPVKEATQL

Variants of: B1
Assay: raw area under fraction-flipped curve 0-4 h after induction (AUC4h, not background-subtracted), DNA-recorder readout of cleavage of the substrate (dimensionless); higher = more cleavage of the substrate by the protease variant
Conditions: temperature: 34 °C; time window: 0-4 h after rhamnose induction
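Also: Bxb1 expression induced with 0.2% (w/v) L-rhamnose at OD600 near 0.5, cultures sampled hourly, flipped fraction per protease–substrate barcode pair counted by paired-end Illumina sequencing.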

Variant | area with substrate EELYFQS | area with substrate EGLYFQS | area with substrate EWLYFQS | area with substrate EYLYFQS | area with substrate EHLYFQS | area with substrate EILYFQS | area with substrate ERLYFQS | area with substrate EFLYFQS | area with substrate ELLYFQS | area with substrate EPLYFQS | area with substrate ESLYFQS | area with substrate EKLYFQS | area with substrate EQLYFQS | area with substrate ETLYFQS | area with substrate EVLYFQS | area with substrate EMLYFQS
C20G | 0.0875 | 0.0582 | 0.0675 | 0.0476 |  |  |  |  |  |  |  |  |  |  |  | 
N116K |  | 0.0931 | 0.0844 |  | 0.119 | 0.106 | 0.128 |  |  |  |  |  |  |  |  | 
Q59Y | 0.111 | 0.0866 |  | 0.102 |  |  | 0.122 | 0.133 | 0.0951 | 0.111 | 0.11 |  |  |  |  | 
Y12E | 0.111 | 0.13 | 0.0932 | 0.123 | 0.105 | 0.112 | 0.0856 |  |  | 0.104 | 0.1 | 0.07 | 0.116 | 0.105 | 0.0928 | 
G35P |  |  |  |  |  |  |  |  |  |  |  | 0.0281 |  |  | 0.0313 | 
R10N | 0.117 | 0.0996 | 0.076 |  |  | 0.0918 |  | 0.0873 | 0.103 | 0.0954 | 0.0841 | 0.127 | 0.109 | 0.101 | 0.102 | 
G166P | 0.0551 |  | 0.0458 |  |  | 0.0227 |  | 0.0464 |  | 0.0353 | 0.0471 | 0.0585 | 0.0491 |  | 0.0494 | 
Q74W | 0.0899 | 0.0905 | 0.0875 | 0.113 | 0.0978 | 0.102 |  | 0.112 | 0.0884 |  | 0.0834 | 0.0806 | 0.0964 | 0.088 | 0.0756 | 
H47S | 0.0595 |  | 0.0595 | 0.046 |  | 0.0575 |  |  | 0.067 |  | 0.0609 |  | 0.0479 |  | 0.0502 | 
N193I | 0.102 | 0.0787 |  | 0.0783 | 0.0816 | 0.0954 | 0.0791 | 0.102 | 0.0858 | 0.106 |  | 0.0879 |  |  | 0.106 | 0.0968
F180P |  |  |  | 0.0445 |  | 0.0363 |  |  |  | 0.0505 | 0.0528 |  |  |  | 0.0573 | 0.0619
D69I | 0.0995 |  | 0.0817 |  |  | 0.0717 | 0.0602 |  |  | 0.0703 |  |  | 0.0639 | 0.0922 |  | 
D69C | 0.14 | 0.0662 | 0.0943 | 0.0858 | 0.135 | 0.0848 |  |  |  | 0.101 | 0.086 | 0.082 | 0.0869 |  | 0.0776 | 0.127
I19E | 0.059 |  |  | 0.0762 | 0.049 | 0.0377 | 0.0531 | 0.0591 |  |  | 0.0585 | 0.0553 | 0.0491 | 0.0536 | 0.0495 | 0.055
Q194E |  |  |  |  |  |  | 0.0744 | 0.0793 | 0.121 |  | 0.108 |  |  | 0.122 | 0.102 | 
